Test results as given in the RNAGym collection of RNA variant scans (doi:10.7554/elife.90254).
Read counts are not given, so values of variants with three or more changes are uncertain.

B1: OR4K15 (parent)
chain: GUUAACGGUCAUAGGCCAUGGAAACUAGGAGCACCAUUUCGCUGCCAGUGAAGAAAUGAACAAAGAAAAUCUGGGCCAGGCAGGCAUCAAAAGAAAUAGUCUUGCGCUCAACCAGAAAGUCUGUAAUCAUUUUAAGGGUA

Variants of: B1
Test: self-cleavage, relative activity (ratio to wild type); higher = more cleavage; in vitro, sequencing; the parent is a self-cleaving ribozyme

Row | Variant | self-cleavage
1 | U9G U102C U130A U131C | 1.12
2 | U38C U72A A110G A117G U127A | 0.03
3 | A47C U108C C109A | 0.02
4 | U39C A66G A118G | 1.07
5 | A11U A24G A51U U72C A134G | 0.15
6 | A54G A69G U122A | 1.2
7 | U2C A63G A68U U127C | 0.54
8 | A51G A60G U120C U132A | 0.45
9 | A13G A23G U49C A67G | 1.37
10 | U38C A68G A110G | 0.13
11 | A55G A82C U132C | 0.15
12 | A27G A82U A95U | 0.17
13 | U37C A62G U72C A95G | 0.05
14 | A67G U108C A129G | 0.02
15 | C16U A27G A110G U122C | 0.09
16 | U3C A23G A33U A68G U100C | 1.4
17 | U9C U39C A67U A82G G119A U131C | 0.61
18 | A59U A125G A140U | 0.27
19 | A62G A111G A118U | 0
20 | A4G A60G A125G | 0.45
21 | A33G G44A A78G A96C A111G A117G | 0.02
22 | G8U A36G A62G A89U | 0.91
23 | U9C A47G A60G C121U | 1.99
24 | U26A U43A U127A | 2.22

Row | Variant | self-cleavage
25 | U9C A66G G138A | 1.75
26 | A23G A30G A86G A94G C121A G123A | 0.83
27 | C17A A30G A67U G93A | 1.33
28 | A30G U39A U131C | 1.05
29 | A62G A94G A114G | 0.53
30 | A5G A24G G83A | 0.84
31 | A24G A30G A47G A59U G136A | 1.83
32 | G15A A33G U70C U120C | 0.05
33 | A5G A11G A62G | 1.93
34 | C6A A27G A60G | 0.86
35 | U2C C45A A111U | 0.08
36 | A5G A129G U132C | 0.65
37 | G7A U12C A54G A92G | 1.92
38 | A68G A86U A114G | 0.34
39 | A24G G44A A66G A134U | 1.53
40 | U12A A24U A94G A110G C112U | 0
41 | A54G A86G U124C | 1.28
42 | A110G U120C A125G | 0.1
43 | A18C A63G A118G U131C | 0.46
44 | U57C A82G A117G U130C | 0.21
45 | U49A A54G A117U | 0.67
46 | G28A G31A A63G A64U G99A U100C U131C U132C | 1.8
47 | U72C U102C A114U U127A | 0.03
48 | U37C A59U A94G U132C | 1.4

Row | Variant | self-cleavage
49 | A68U U72C A94G U131C | 0.16
50 | A63G A110C A116U A129U | 0.05
51 | U26C C81U C101A U130C | 0.02
52 | U43C A63C U100C | 1.97
53 | G58U A118G A125U | 1.31
54 | U26G U43C U103C | 0.68
55 | U2C A30G A47G A60G A111G U120C | 0.03
56 | A5G U43A A55G | 0.79
57 | A5U U87C A111G A117G | 0.02
58 | A60G A63G A64G C105A U124C | 0.03
59 | A56G A66G A125G | 0.41
60 | A52G A64G G74A U100C | 0.28
61 | A23G U26G A126G U130C | 1.15
62 | U49C A78U A98U A111G | 0.01
63 | A18G U37C A68G | 1.21
64 | A23G A116G A125G | 0.14
65 | U2A A56G A92G | 1.74
66 | U9C A18G U124C | 1.3
67 | A56G A67G U103C A118G | 1.08
68 | U3C G14A A30G A59U A62G | 0
69 | A64G U97C A98G | 1.23
70 | U37C A64G A95G U103C U131C | 1.02
71 | A59G A91G A96G U127C | 0.26
72 | U19C A24G A82G | 0.11

Row | Variant | self-cleavage
73 | U9C C32U A110G | 0.12
74 | U19A U26C U43C C71A | 0.3
75 | A47U A95G A117G | 1.76
76 | U9C U39A U57A A140G | 1.45
77 | U9C A22G A90G | 2.1
78 | A22G A52G A54G A111G U130A | 0.02
79 | U19C A47U U57A | 0.62
80 | U49C A78U U132C | 0.17
81 | A13G A23G A30G A55G U87C | 0.78
82 | A11U A47G A54G | 0.31
83 | A68G A82G U127C | 0.29
84 | A11U U122C G138A | 1.36
85 | U37C U122C U131C | 0.98
86 | U9C C17U A22G A91U | 1.08
87 | A18U U26C A60G G73A | 0.05
88 | A51G A54G U57C A64G | 0.93
89 | A59U A92G A129G | 0.84
90 | A56G A66G A67G U120C | 1.26
91 | A13G A114G A118G U130C U131C | 0.08
92 | A11G A64G U87C A110U | 0.98
93 | A22U A30U A55G U57C A82G U122C | 0.18
94 | U12C G41A U57C A111G U122A | 0.01
95 | U2C U37C U131C | 1.74
96 | A23C U39C A47G | 1.39

Row | Variant | self-cleavage
97 | U70G A82G A92G A126G | 0.13
98 | A67G A92G A116G U133C | 0.16
99 | A4U C42A A110G | 0.13
100 | A33G A52G U139A | 0.72
101 | A64G A92G A95G U100C | 2.23
102 | A56G A68G U102A | 0.74
103 | A60G A110G A114G U131C | 0.05
104 | U12A U19C U87C | 1.25
105 | A22G A27G U87C U103C | 0.16
106 | A30G A66G A86G U120A | 1.49
107 | A47U A96G U122C | 1.1
108 | U2C A18G U19A U122A U130C | 0.61
109 | A54G A68C A91U U108C | 0.02
110 | A27G U122C A135G | 0.92
111 | A30U A96G A111G | 0
112 | A11G A23G U49A A78U | 0.3
113 | A23G A47G A56G | 1.06
114 | U19C U38A A111C | 0.04
115 | A13G A27G G75C A82G A114G | 0.12
116 | U49C A78G A114U | 0.01
117 | A47G A67G A95G U102C | 2.32
118 | A23G A82G A117U | 0.72
119 | A33G A94G U132A | 0.47
120 | A95G U139C A140G | 2.41

Row | Variant | self-cleavage
121 | A11C A64G G74A U130C | 0.13
122 | U38G U43A A92G U120A A129G | 1.05
123 | A5U A54G A67G G74C U130C | 0.28
124 | A24U U49C A56C | 0.95
125 | A56C A62G A114G | 0.06
126 | A36U A52G U130G | 0.8
127 | A67G A68U U102A A116G | 0.23
128 | A27C U70A A82G U127A | 0.59
129 | G80A A90G A92G U102C A111G | 0
130 | U26C A59G A78G | 0.13
131 | A24U A111G A116G U130C | 0
132 | A27U U57C A114U U130A | 0.02
133 | A4G U9C A69G A129G | 0.25
134 | A52G U103C A135U | 0.78
135 | U2C A51U A59G A98G | 0.61
136 | A5U U87C A96G A117G U122G | 0.31
137 | U26C U43A A63C | 1.8
138 | U2C A92G A117G A135G | 0.74
139 | U19C U87C U100C | 1.69
140 | A52G A54G G83A | 1.12
141 | A54U A62U U100C U122A U132C | 1.92
142 | A30G U39A A82U U103C | 0.09
143 | A92C A98G U132C | 0.26
144 | A5G A11G A66C A69G A82U A94G A96G U122A | 0.08

Row | Variant | self-cleavage
145 | G48U A78G A96G | 0.12
146 | U9C U49C A95G | 1.69
147 | U12C U39C U103C | 0.96
148 | A51U A55G A66C U100C U108C | 0
149 | A27G U43A U72C | 0.18
150 | A11G A51G A59U U120A | 1.32
151 | U38C U57C A82G | 0.6
152 | A18G U70C A116G | 2.15
153 | U9C A51G A56U A67G G93A | 1.75
154 | A22G U39A U49C A66G U100A | 0.46
155 | U9C U37C A134G | 2.22
156 | A36G U39C A67G A69G G74A | 0.88
157 | U19A A22G A36C A52G A59G A140G | 0.73
158 | A67G U131C U132C | 2.22
159 | A4G G31A A63U A89G U108C | 0.02
160 | A36U U120C A135G | 1.25
161 | U38C A78G C113A A126G | 0
162 | U57C U108C A117G | 0.02
163 | A63G U100C A114G | 0.95
164 | A22G A51G A56G A59U A60G | 1.33
165 | U2A A23G U124C | 0.72
166 | A22G U26C A52G A110G | 0.13
167 | A5G A62U A86G U103C U120A | 0.76
